Results taken from article PMC4336329 (PLoS ONE, 2015).
Out of some 310,000 compounds screened, about 2,200 (0.71%) showed an effect of 50% or more. Effects have a minus sign here. The list shows a part of the results.

Target: human ether-à-go-go-related gene (hERG) potassium channel (human, UniProt Q12809)
Assay: primary screen, population patch clamp on CHO cells stably expressing hERG

Chain of human ether-à-go-go-related gene (hERG) potassium channel (Q12809 whole entry, looked up): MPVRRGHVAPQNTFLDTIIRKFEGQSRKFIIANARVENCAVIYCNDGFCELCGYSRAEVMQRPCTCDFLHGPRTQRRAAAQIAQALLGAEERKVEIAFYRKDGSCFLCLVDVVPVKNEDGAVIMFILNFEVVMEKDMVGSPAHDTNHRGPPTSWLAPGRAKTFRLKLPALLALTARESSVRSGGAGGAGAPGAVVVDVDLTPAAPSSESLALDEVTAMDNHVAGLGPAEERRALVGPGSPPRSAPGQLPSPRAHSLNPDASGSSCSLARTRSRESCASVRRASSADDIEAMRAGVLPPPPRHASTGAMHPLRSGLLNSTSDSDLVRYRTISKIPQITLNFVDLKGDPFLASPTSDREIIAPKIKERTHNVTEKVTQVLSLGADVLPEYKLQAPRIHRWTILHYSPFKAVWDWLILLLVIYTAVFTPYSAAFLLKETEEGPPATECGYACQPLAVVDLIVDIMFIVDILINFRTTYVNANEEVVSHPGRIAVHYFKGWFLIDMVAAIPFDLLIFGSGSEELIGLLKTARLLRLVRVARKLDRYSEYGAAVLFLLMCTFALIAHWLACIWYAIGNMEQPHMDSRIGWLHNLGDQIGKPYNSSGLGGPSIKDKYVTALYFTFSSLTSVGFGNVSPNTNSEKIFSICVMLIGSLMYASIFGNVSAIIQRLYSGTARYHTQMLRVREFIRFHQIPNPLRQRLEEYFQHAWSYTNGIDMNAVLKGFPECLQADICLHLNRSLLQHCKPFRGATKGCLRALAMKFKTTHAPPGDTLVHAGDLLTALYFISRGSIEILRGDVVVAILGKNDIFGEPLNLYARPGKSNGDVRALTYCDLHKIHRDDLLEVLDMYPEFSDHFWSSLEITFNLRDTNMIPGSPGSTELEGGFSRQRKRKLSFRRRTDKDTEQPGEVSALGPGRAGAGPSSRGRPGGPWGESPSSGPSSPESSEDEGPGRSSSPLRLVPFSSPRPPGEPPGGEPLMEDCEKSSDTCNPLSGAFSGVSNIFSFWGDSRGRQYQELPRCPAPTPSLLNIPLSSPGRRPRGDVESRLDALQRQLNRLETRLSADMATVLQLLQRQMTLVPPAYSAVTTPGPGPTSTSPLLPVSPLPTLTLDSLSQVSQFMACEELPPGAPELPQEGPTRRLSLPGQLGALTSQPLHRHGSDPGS

| Structure (SMILES) | hERG current change (%, negative = inhibition) at 1uM |
| --- | --- |
| CCOC(=O)C1(CCOc2ccccc2)CCN(Cc2ccc(C)s2)CC1 | -65.4% |
| O=C(CSc1ccc(F)cc1)NCCSc1ccccc1 | 4.63% |
| O=C(CNC(=O)c1cccc(Br)c1)N/N=C/c1ccc2c(c1)OCO2 | 21.7% |
| Cc1cccc(C)c1OCc1nnc(SCC(=O)Nc2ccc(N3CCOCC3)cc2)o1 | 13.3% |
| COc1ccc(-c2csc(NC(=O)c3c(OC)cccc3OC)n2)cc1 | 12.2% |
| CCc1c(O)nc(SCC(=O)N(CC)CC)[nH]c1=O | 15.2% |
| Cc1cc(C)c2nc(SCc3ccc([N+](=O)[O-])cc3)nc(C)c2c1 | 2.55% |
| O=C(Nc1ccc2c(c1)OCCO2)C1CCCN(S(=O)(=O)c2cccc3nsnc23)C1 (stereo not drawn) | 7.11% |
| Cc1ccccc1NC(=O)CCN1CCN(C/C=C/c2ccccc2)CC1 | -72% |
| COc1cc(NC(=O)CCc2c(C)nn(-c3ccc(N4CCOCC4)nn3)c2C)cc(OC)c1OC | 12.3% |
| COc1cc2c(cc1OC)C(COc1ccc([N+](=O)[O-])cc1)NCC2 (stereo not drawn) | -43.6% |
| Cc1cc(C)n(-c2nc3ccccc3c3nc(C)nn23)n1 | 7.9% |
| N#Cc1ccccc1CSc1nc2ncc(Br)cc2[nH]1 | -2.45% |
| COc1ccccc1NS(=O)(=O)c1ccc(Cl)c(NC(=O)c2sc3cc(Cl)ccc3c2Cl)c1 | 15.1% |
| Cc1cc(SCC(=O)Nc2ccccc2)nc(C)n1 | 6.28% |
| Cc1ccc(CNC(=O)C2CCCN(Cc3cnn(-c4ccccc4)c3-n3cccc3)C2)cc1 (stereo not drawn) | -20.3% |
| CCOC(=O)c1oc2cc(O)ccc2c(=O)c1-c1csc(C)n1 | 12.1% |
| COc1ccc(OCCC(=O)NCc2ccccc2)cc1 | 7.29% |
| Cc1c(OCC(=O)NCCN2CCOCC2)ccc2c3c(c(=O)oc12)CCC3 | -0.585% |
| Cc1nn(Cc2ccccc2Cl)c(Cl)c1C(=O)OCC(=O)NC(=O)NC1CCCCC1 | 14.6% |
| CCN(CC)C(=O)CSC1=N/C(=C/c2ccco2)C(=O)N1c1ccc(OC)c(Cl)c1 | 9.46% |
| Cc1ccc(-c2n[nH]c(=O)c3ccccc23)cc1S(=O)(=O)NCCN1CCOCC1 | 5.01% |
| Cc1ccc(C(=O)c2c(NC(=O)c3cccnc3)sc3c2CCCC3)cc1 | 0.762% |

| Structure (SMILES) | hERG current change (%, negative = inhibition) at 1uM |
| --- | --- |
| COc1cnc(NS(=O)(=O)c2ccc(N)cc2)nc1 | 12.1% |
| COc1ccc(-c2nc3ccc(C)cn3c2NCc2ccc3c(c2)OCO3)cc1 | -15% |
| CCCCCN=CC1=C(O)CC(c2ccccc2)CC1=O (stereo not drawn) | 7.43% |
| COc1ccc2cc(C3=CC(=O)C[C@H](c4ccc5c(c4)OCO5)C3)ccc2c1 | 12.5% |
| Cc1cccc(-n2nnnc2SCc2csc(-c3ccccc3)n2)c1 | 10.5% |
| CCOC(=O)c1[nH]c(C)c(C(=O)NCC2CCCO2)c1C (stereo not drawn) | 10.3% |
| O=C(CSc1nnc(-c2ccncc2)o1)Nc1nncs1 | 15.3% |
| COC(=O)c1ccc(CS(=O)(=O)c2ccc(C)cc2)cc1 | 12.6% |
| CCOc1ncccc1C(=O)OCC(=O)Nc1ccc(C(C)C)cc1 | 15.4% |
| COc1ccc(-c2nn(-c3ccccc3C)cc2CNC(C)Cn2cncn2)cc1F (stereo not drawn) | -9.1% |
| Cc1cc(F)ccc1NCc1cccnc1 | 17.3% |
| CCC(CC)NC1CCCCC1OC (stereo not drawn) | 13% |
| CCCOC(=O)CCCN1C(=O)/C(=C2\SC(=S)N(CCCC(=O)OCCC)C2=O)SC1=S | 16% |
| COc1cc2c(cc1NC(=O)CSc1nc3cc(Cl)ccc3s1)oc1ccccc12 | 12.7% |
| Cc1ccc(S(=O)(=O)NC2(C(F)(F)F)NC(=O)N(c3ccc(F)cc3)C2=O)cc1 (stereo not drawn) | 5.29% |
| C=CCSc1nc2ccccc2n1S(=O)(=O)c1ccc(Cl)cc1 | 11.9% |
| CC(=O)c1ccc(OCC(O)CN2CCC(C)CC2)cc1.Cl (stereo not drawn) | -0.759% |
| COc1ccc(C2CC(c3ccccc3)=NN2c2ccc(Cl)c(C(=O)O)c2)cc1 (stereo not drawn) | 7.92% |
| CNC(=O)CSc1nnc(-c2ccc3c(c2)OCO3)n1C | 15.9% |
| Cc1ccc(SCc2cc(=O)n3[nH]cnc3n2)cc1 | 2.45% |
| CCSc1nc2ccc(OC)cc2cc1C#N | 3.44% |
| CCOC(=O)C1=C(C)NC(SC)=NC1c1ccc(OC)cc1.I (stereo not drawn) | 8.97% |
| CCNC(=S)N1CCN(Cc2ccc3c(c2)OCO3)CC1 | 23.4% |

| Structure (SMILES) | hERG current change (%, negative = inhibition) at 1uM |
| --- | --- |
| COc1cccc(CC2(CO)CCCN(S(=O)(=O)N(C)C)C2)c1 (stereo not drawn) | 40.5% |
| O=C(c1cccnc1)C1Cc2ccccc2C1=O (stereo not drawn) | 7.83% |
| CC1=NOC(=O)/C1=C/c1ccc(-c2ccc(Cl)cc2)o1 | 13.4% |
| CCN1C(=O)C(=C2C=C(C)N(Cc3ccco3)C(C)=C2)C(=O)N(CC)C1=S | 3.32% |
| CC(C)C[C@H](NC(=O)C1CC(=O)N(c2ccc3c(c2)OCCO3)C1)C(=O)NC1CCCC1 (stereo partly drawn) | 12.2% |
| CC(C)Cn1c2c(c(=O)[nH]c1=O)C(C(F)(F)F)(C(F)(F)F)N=C(CCC1CCCCC1)N2 | 7.42% |
| Cc1cc(OCC(=O)Nc2ccc(F)c(F)c2)nc(C(C)C)n1 | 17% |
| CC(C)(C)SCCNS(=O)(=O)c1ccccc1 | 16.2% |
| CCOC(=O)CSc1nc(-c2ccccc2)nc2ccc(C)cc12 | 12.7% |
| Cc1ccc(OCCC(=O)N2CCN(c3ccc(O)cc3)CC2)cc1 | 4.2% |
| COc1ccc(N2C(=O)C(CC(=O)Nc3ccccc3)N(Cc3ccc(OC)c(OC)c3)C2=O)cc1 (stereo not drawn) | 12.7% |
| Cc1cc(C)nc(-n2nc(C)cc2NC(=O)c2ccc(F)cc2F)n1 | 2.98% |
| CC1CCN(c2ncnc3nc[nH]c23)CC1 | 2.12% |
| Cc1ccc(S(=O)(=O)c2c(N)n(CCCN(C)C)c3nc4ccccc4nc23)cc1 | -1.47% |
| Cn1c(=O)c2c(nc(Sc3ncccn3)n2Cc2ccccc2Cl)n(C)c1=O | -0.59% |
| Cc1ccsc1/C=C(\CC(=O)O)c1nc2ccccc2o1 | 11.2% |
| Cl.Cn1cnc([N+](=O)[O-])c1SCC(=O)NN | 12.3% |
| CC(=O)c1cn(CC(=O)NCc2cccnc2)c2ccccc12 | 7.44% |
| Cc1sc2ncnc(SC(C)C#N)c2c1C (stereo not drawn) | 21.1% |
| CC(=O)Nc1ccc(C(=O)Nc2ccc(S(=O)(=O)N3CCCCC3)cc2)cc1 | 7.96% |
| O=C1CSC(=S)N1/N=C/c1ccc(Cl)c([N+](=O)[O-])c1 | 2.01% |
| Cc1ccc(Cn2cc(C(=O)NN)c(=O)c3ccc(F)cc32)cc1 | 3.23% |
| C=CCNS(=O)(=O)c1ccc2nsnc2c1 | 9.21% |

| Structure (SMILES) | hERG current change (%, negative = inhibition) at 1uM |
| --- | --- |
| CNC(=O)c1ccccc1NC(=O)c1ccco1 | 7.27% |
| COc1cccc2c1Oc1ncccc1N(C(=O)CCC(=O)NCc1cccc(C)c1)C2 | 4.21% |
| Cc1cccc2sc(N(CCCN(C)C)C(=O)c3ccc(C(=O)c4ccccc4)cc3)nc12 | 8.43% |
| CCOc1ccccc1NC(=O)N1CCCC1C(=O)Nc1nnc(CC)s1 (stereo not drawn) | 3.06% |
| Cc1ccc(S(=O)(=O)N(C)CC(=O)OCC(=O)NCCN2C(=O)CSC2=O)cc1 | 4.17% |
| Cc1ccc(CSc2nnc(C)c(=O)n2N)cc1 | 12.7% |
| COc1ccc(CCNC(=O)c2coc3ccccc3c2=O)cc1OC | 3% |
| CCCc1cc(=O)oc2c3c(cc(OCC(=O)N[C@@H](CSC)C(=O)O)c12)OC(C)(C)CC3 | 12.5% |
| Cc1cccc(NC(=O)C(C)Sc2nnc(-c3cccnc3)o2)c1 (stereo not drawn) | 8.45% |
| CC(C)C(=O)Nc1cccc2nsnc12 | 13.3% |
| CSc1ncc(Cl)c(C(=O)Nc2ccc(S(=O)(=O)N3CCOCC3)cc2)n1 | 5.04% |
| CCOC(=O)CC(Nc1nc(N2CCOCC2)nc(N2CCOCC2)n1)c1ccccc1Cl (stereo not drawn) | 8.77% |
| Cc1nn(-c2ccccc2)c(C)c1-c1cc(C(=O)N/N=C/c2cccnc2)[nH]n1 | 7.46% |
| O=C(CS(=O)c1ccc(C(F)(F)F)cc1[N+](=O)[O-])Oc1ccccc1 (stereo not drawn) | 6.78% |
| Cc1sc2nc(-c3ccco3)oc(=O)c2c1C | 12% |
| Cc1ccc(C)c(S(=O)(=O)ON2C(=O)c3ccccc3C2=O)c1 | 1.91% |
| O=C(N/C(=C\c1ccccc1)C(=O)N1CCN(CCO)CC1)c1ccccc1 | 2.9% |
| CCCCCN1CC(O)=C(c2nc3ccccc3[nH]2)C1=N | 8.25% |
| COc1cccc(NC(=O)COC(=O)c2c(F)cccc2Cl)c1 | 13.1% |
| CC(C)CC(O)(c1ccccc1)C(CN1CCOCC1)c1ccccc1.Cl (stereo not drawn) | 6.22% |
| O=C(CN1C(=O)c2ccccc2C1=O)OCC(=O)c1ccccc1 | -3.21% |
